Data: the supplement of paper PMC7826260
The list shows a part of the results. Cleavage of a single-stranded DNA pool by Rep nickase domains was read by sequencing (3 µM enzyme, 1 h, 37 °C); shown is the middle of each 90-letter strand. The score is log2 (uncut reads / reads without enzyme); more negative means more cut, near 0 not cut, and no call is made. Reads are scaled to the total; uncut strands gain when others are lost, and binding without cutting may add a little.

Columns and labels:
Assay in all cases: uncleaved DNA left, log2 of reads against the no-enzyme library (log2 ratio); higher = less cleavage (more negative = more Rep cleavage of the k-mer); sequences stand for … in CTCGTCCG…ACCGGAGA
[1] = tested on: T1, Rep nickase domain of Muscovy duck circovirus
T1 sequence (Rep 1-111, printed without the tag): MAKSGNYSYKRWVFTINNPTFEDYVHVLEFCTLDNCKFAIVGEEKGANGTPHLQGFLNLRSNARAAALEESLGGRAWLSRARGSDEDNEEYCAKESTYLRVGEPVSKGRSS
Protocol: (§1)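 A pool of 90-nt single-stranded DNAs with seven random bases just before the constant AC of the nick site (name = the seven bases) was cut by 3 µM recombinant His6-SUMO-tagged Rep nickase domain (300 nM DNA, 50 mM HEPES pH 8.0, 50 mM NaCl, 1 mM MnCl2, 1 h, 37 °C, three replicates). Uncut DNA was amplified and sequenced.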

[2] = tested on: T2, Rep nickase domain of banana bunchy top virus
T2 sequence (Rep 1-94, printed without the tag): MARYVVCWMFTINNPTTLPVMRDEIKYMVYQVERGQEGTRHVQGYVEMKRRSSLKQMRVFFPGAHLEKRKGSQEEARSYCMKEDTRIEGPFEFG
Protocol: as §1

[3] = tested on: T3, Rep nickase domain of cabbage leaf curl virus
T3 sequence (Rep 1-116, printed without the tag): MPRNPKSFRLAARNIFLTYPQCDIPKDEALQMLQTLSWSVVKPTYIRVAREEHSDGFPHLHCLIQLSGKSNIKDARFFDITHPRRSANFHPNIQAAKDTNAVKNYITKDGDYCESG
Protocol: as §1

[4] = tested on: T4, Rep nickase domain of chickpea chlorotic dwarf virus
T4 sequence (Rep 1-124, printed without the tag): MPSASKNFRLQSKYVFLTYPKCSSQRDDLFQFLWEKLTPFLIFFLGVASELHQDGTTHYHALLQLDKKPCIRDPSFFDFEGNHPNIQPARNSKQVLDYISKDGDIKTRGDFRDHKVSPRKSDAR
Protocol: as §1

[5] = tested on: T5, Rep nickase domain of faba bean necrotic yellows virus
T5 sequence (Rep 1-98, printed without the tag): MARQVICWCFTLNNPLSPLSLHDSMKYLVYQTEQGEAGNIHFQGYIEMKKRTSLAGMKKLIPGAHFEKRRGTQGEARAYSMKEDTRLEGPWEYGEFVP
Protocol: as §1

[6] = tested on: T6, Rep nickase domain of maize striate mosaic virus
T6 sequence (Rep 1-117, printed without the tag): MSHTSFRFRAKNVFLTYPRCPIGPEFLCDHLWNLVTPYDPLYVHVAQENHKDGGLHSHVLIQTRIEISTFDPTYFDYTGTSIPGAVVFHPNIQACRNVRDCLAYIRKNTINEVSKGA
Protocol: as §1

[7] = tested on: T7, Rep nickase domain of porcine circovirus 2
T7 sequence (Rep 2-116, printed without the tag): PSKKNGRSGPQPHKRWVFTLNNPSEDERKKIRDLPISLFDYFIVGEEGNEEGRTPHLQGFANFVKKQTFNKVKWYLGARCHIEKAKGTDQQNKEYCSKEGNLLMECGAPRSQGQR
Protocol: as §1

[8] = tested on: T8, Rep nickase domain of tomato yellow leaf curl virus
T8 sequence (Rep 1-136, printed without the tag): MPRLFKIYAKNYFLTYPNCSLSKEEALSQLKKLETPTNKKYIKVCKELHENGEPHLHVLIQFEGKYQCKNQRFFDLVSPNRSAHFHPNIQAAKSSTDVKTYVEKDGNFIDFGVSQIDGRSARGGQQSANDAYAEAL
Protocol: as §1

[9] = tested on: T9, Rep nickase domain of wheat dwarf virus
T9 sequence (Rep 1-137, printed without the tag): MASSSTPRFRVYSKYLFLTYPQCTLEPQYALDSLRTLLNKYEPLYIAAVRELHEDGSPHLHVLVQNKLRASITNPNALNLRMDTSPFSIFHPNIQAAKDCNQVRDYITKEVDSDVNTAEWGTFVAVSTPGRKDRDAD
Protocol: as §1

Sequence	uncleaved DNA left (log2) [1]	uncleaved DNA left (log2) [2]	uncleaved DNA left (log2) [3]	uncleaved DNA left (log2) [4]	uncleaved DNA left (log2) [5]	uncleaved DNA left (log2) [6]	uncleaved DNA left (log2) [7]	uncleaved DNA left (log2) [8]	uncleaved DNA left (log2) [9]
GCCGCCA	-0.139	-0.0116	0.0331	-0.113	-0.081	-0.0117	0.0714	-0.0697	-0.113
GACTATG	-0.0466	-0.105	-0.218	-0.107	-0.104	-0.586	-0.0928	-0.155	-0.0706
TTGCGAA	-0.0241	0.00282	-0.783	0.0907	0.0214	-0.8	0.0849	0.109	-0.00787
TGGTCCT	-0.0975	0.0421	0.271	-0.666	-0.0496	0.992	-1.69	0.126	0.189
CCGACCT	-0.0475	0.0399	-0.0457	-0.399	-0.0328	0.0276	-0.104	-0.0401	-0.0716
CAAGAAT	0.103	-0.107	-0.0016	-0.493	0.0372	0.776	0.0386	-0.0714	-0.0642
CCCGCTG	0.0397	-0.0686	0.196	0.822	-0.0912	1.13	0.146	-0.0583	-0.0202
TCAAAGG	0.00394	0.0329	0.414	1.25	-0.0689	1.26	0.0352	-0.165	0.0256
TAAGCTG	0.0483	0.0454	0.355	1.61	-0.0301	1.75	0.237	-0.102	0.107
GAAAGGC	0.0415	0.0634	0.19	0.552	0.0129	0.00315	0.206	0.0496	0.0963
GCCCGCG	0.0507	-0.023	-0.492	0.817	0.0572	-0.0187	0.0832	-0.15	-0.153
CGAATCT	0.109	0.0407	-0.171	-1.56	0.0576	-0.204	-0.0446	-0.0608	0.0592
CTAACCC	-0.388	0.0561	-0.332	-1.56	-0.0196	-0.509	-0.964	-0.173	0.00155
TGGAGTT	0.182	-0.0153	0.564	0.101	0.119	1.11	0.0349	0.135	0.21
GGGCAGC	0.0203	0.0576	0.802	1.88	-0.00489	2.21	0.196	0.0147	0.111
CCAAAAA	0.11	0.129	0.178	-0.00533	0.091	-0.52	0.154	0.012	0.257
GCGATCA	-0.0629	0.0377	0.0293	0.356	-0.0533	0.656	-0.0954	-0.0564	0.0563
GGAGCGT	-0.135	-0.0284	0.348	0.908	-0.11	0.675	0.0597	-0.107	-0.0292
CATCGTC	0.0432	-0.0371	-0.269	-0.501	0.0519	-1.01	0.0446	-0.0986	-0.0343
ACGCCAG	-0.0675	-0.0987	-0.655	-0.669	-0.0175	-1.12	0.015	-0.148	-0.262

Sequence	uncleaved DNA left (log2) [1]	uncleaved DNA left (log2) [2]	uncleaved DNA left (log2) [3]	uncleaved DNA left (log2) [4]	uncleaved DNA left (log2) [5]	uncleaved DNA left (log2) [6]	uncleaved DNA left (log2) [7]	uncleaved DNA left (log2) [8]	uncleaved DNA left (log2) [9]
GTGATGC	-0.0333	0.166	0.131	0.779	-0.0574	1.34	-0.00133	0.068	0.00934
TTTACGT	-0.00545	-0.0329	0.318	0.0361	-0.0544	0.648	0.045	-0.0613	-0.1
TTTTATC	0.0187	0.0747	0.259	0.112	0.0529	-0.271	-0.09	0.156	0.0301
AAGGTGC	0.0646	-0.0217	-0.147	-0.022	0.132	-0.74	0.0703	0.174	0.0167
GTGGCTC	0.0657	0.074	0.368	0.978	-0.0565	1.88	0.0219	0.0353	0.0465
GGCTAGC	-0.0779	0.0587	0.275	0.722	-0.0046	1.19	0.0691	-0.0503	-0.0677
CAATCAG	0.0427	-0.029	-0.767	-0.229	0.117	-1.06	0.207	0.0415	-0.0786
TTATAAT	-3.65	-0.113	-3.03	-3.05	-0.102	-1.74	-3.76	0.0219	-2.45
AGCCTTT	0.0444	-0.0921	0.177	-0.91	-0.0163	0.341	-0.524	-0.138	-0.0652
ACGTGAT	0.0313	0.173	0.165	0.456	0.205	0.666	-2.75	-0.0183	-0.0571
GACGAAA	-0.089	-0.188	0.0938	0.394	-0.0739	0.299	-0.0352	-0.164	-0.129
AATCGCA	-0.0871	0.119	-0.463	-1.35	0.0147	-1.18	-0.0552	0.0574	-0.0531
ATAGGCT	0.0441	0.00921	0.0276	0.687	-0.084	0.761	0.0942	-0.138	0.0604
CTGCACA	-0.21	-0.0784	-0.297	-1.18	-0.0938	-0.848	-0.209	-0.191	-0.113
AATTTCG	0.0657	0.0112	-0.911	-0.00646	0.0707	-1.02	0.052	0.155	0.0625
GATGCCG	0.0763	0.0179	-0.765	-0.351	0.0208	-0.913	0.191	-0.108	-0.00787
AAAGCTT	-0.138	-0.0795	-0.329	-1.04	-0.108	1.34	-0.286	-0.204	-0.124
AGTGGAG	0.101	0.073	-0.376	-0.198	0.125	-0.63	0.322	0.0673	0.109
ATTCGGG	0.141	-0.0661	-0.255	-0.216	0.0845	-0.87	0.238	0.00406	-0.0774
ATCACTC	-0.0575	-0.107	-0.14	-0.317	-0.129	-0.823	0.00931	-0.169	-0.0597

Sequence	uncleaved DNA left (log2) [1]	uncleaved DNA left (log2) [2]	uncleaved DNA left (log2) [3]	uncleaved DNA left (log2) [4]	uncleaved DNA left (log2) [5]	uncleaved DNA left (log2) [6]	uncleaved DNA left (log2) [7]	uncleaved DNA left (log2) [8]	uncleaved DNA left (log2) [9]
CGAGGCG	-0.183	-0.118	-0.837	0.157	-0.117	-0.782	0.0343	0.0884	-0.21
CCATGTT	-3.48	-0.557	-3.01	-2.87	-0.171	-1.67	-3.48	-0.0294	-1.04
CGACAAA	0.0437	0.0356	0.0702	0.643	0.0459	0.917	0.106	-0.0403	0.0857
TAGAGAC	-0.115	-0.038	0.366	0.926	-0.00803	0.857	-0.0305	-0.0258	-0.00614
TAACGGC	0.0378	0.0444	0.0301	-0.318	0.031	-0.349	0.0306	0.0132	0.0887
AATCGAA	-0.00269	0.00581	-0.241	-0.757	-0.0151	-0.935	-0.0398	-0.0634	-0.129
CATACTT	-0.383	-3.19	-0.617	-3.11	0.0148	-0.583	-3.18	-0.0284	-0.0669
AATGGGC	0.115	-0.0323	0.00239	0.179	-0.0243	-0.319	0.157	-0.029	-0.0145
AGCTGAT	0.107	0.0632	0.227	1.3	0.12	1.36	-0.8	0.0284	0.0454
GACCCAA	0.0713	0.186	0.629	1.1	0.126	1.23	0.0586	0.212	0.282
AACGGAC	-0.0481	-0.0247	0.299	0.964	-0.0386	1.08	0.105	-0.141	0.0455
GTAACGC	0.00565	-0.0173	-0.145	0.206	-0.0748	0.112	0.0514	-0.0375	-0.0566
ATGTACA	-0.0807	-0.0463	-0.17	-1.98	-0.0344	-0.471	-0.401	0.019	-0.00627
ATCTGTT	-2.33	-0.685	-0.249	-0.847	-0.214	0.605	-3.73	-0.0459	-0.277
CTAGTGC	0.0997	0.0668	-0.548	-0.773	0.0206	-0.945	0.191	0.18	-0.0406
TGCCAAT	-0.117	-0.0981	0.0167	-0.0511	-0.0642	-0.299	-0.158	0.13	-0.0324
GACTTCT	-2.09	-1.4	0.0945	-1.89	0.0489	0.732	-2.86	-0.0863	-0.0587
ACTTGAA	-0.0852	-0.0254	-0.299	-0.287	-0.193	-1.03	-0.0507	-0.0625	-0.0137
AGCTAGA	0.0646	0.0684	0.128	0.703	0.0223	0.299	-0.129	-0.0549	0.0777
AGTCTGG	0.0519	-0.0345	-0.0363	0.245	-0.0394	-0.0607	-0.0242	-0.103	-0.0232
